42 sequences from PMC7819943, “Rice protein-binding microarrays: a tool to detect cis-acting elements near promoter regions in rice” can be followed below.

This is one part of the list.

This assay has as its target T1, OsWOX13 (Oryza sativa, UniProt Q5QMM3 1-267).
T1 sequence: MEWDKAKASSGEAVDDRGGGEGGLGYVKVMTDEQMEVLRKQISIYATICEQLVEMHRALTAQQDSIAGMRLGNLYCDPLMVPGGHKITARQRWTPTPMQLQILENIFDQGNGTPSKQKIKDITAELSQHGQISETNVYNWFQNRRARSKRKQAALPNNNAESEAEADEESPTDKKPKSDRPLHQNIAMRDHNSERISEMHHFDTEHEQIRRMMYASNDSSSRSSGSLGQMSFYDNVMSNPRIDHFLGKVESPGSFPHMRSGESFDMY
The assay is described as follows: protein-binding microarray (RPBM); PBS, 2% BSA, 51.3 ng/ul salmon testes DNA, 50 uM zinc acetate, 200 nM TF, 25 C, 1 h; high values mean tight binding. As to conditions: protein: recombinant; tags: N-terminal polyhistidine and DsRed monomer fusion (pET32a); label: CyDye5-dUTP incorporated in the synthesized complementary strand; 3' TTTTT single-stranded linker to array surface; dsDNA, one strand shown. The procedure, abridged: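 A custom Agilent array was converted to double-stranded form by primer extension with Cy5-dUTP and blocked with 2% BSA. Protein at 200 nM in PBS with 2% BSA, salmon testes DNA and 50 µM zinc acetate was applied for 1 h at 25 °C, followed by washing. The proteins were polyhistidine–DsRed N-terminal fusions of transcription factors, expressed in E. coli BL21-CodonPlus and Ni–NTA-purified. The binding signal is per-feature fluorescence intensity (arbitrary units) from an Axon 4000B scanner.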
Take “GATAAACAATTATTGATAGACTATTTGTTGGTAAAGGCTTCGGAGTCACCTAGTGCAG”: the binding signal is 29300 fluorescence intensity (a.u.).
In the case of “GAAAATTAAAGAATATATATAATTGATGATCAAGAATGTACGGAGTCACCTAGTGCAG”, the binding signal is 11200 fluorescence intensity (a.u.).
For the sequence “TAGGATTGGCAAATGATTTTCATAGGATTTAAATTCCTATCGGAGTCACCTAGTGCAG”, the binding signal is 33500 fluorescence intensity (a.u.).
For “AAAACCTTGATTATTCTCGCTGCGTGTATCCCATTCCCACCGGAGTCACCTAGTGCAG”, the binding signal is 11000 fluorescence intensity (a.u.).
Then “ATGATTGCCGTATGATATGTGATACGAAAGAGTTGGGGATCGGAGTCACCTAGTGCAG”, with 32700 fluorescence intensity (a.u.).
Then “GATTATTATTATTAATTAATTACACCGTCCCAACCGGCTTCGGAGTCACCTAGTGCAG”, with 33400 fluorescence intensity (a.u.); and “TTTAGATAGAACTAACTGGAGCGGAACGGGTGGGTTGTGGCGGAGTCACCTAGTGCAG”, with 16900 fluorescence intensity (a.u.); and “AGTGATTACCGTCTCTTGTTAATTTAGTCTCCAATCGCCCCGGAGTCACCTAGTGCAG”, with 40200 fluorescence intensity (a.u.).
On to “GGTGACATGATTTAAGACCAATTGTGTACTTTTACTATTTCGGAGTCACCTAGTGCAG”, for which the binding signal is 23500 fluorescence intensity (a.u.).
Regarding “CCTATAATTAATCGGACGTGTTGGTCGTGTGTATAATATTCGGAGTCACCTAGTGCAG”, the binding signal is 13400 fluorescence intensity (a.u.).
Then “GCGAAATTAATTAGCAGATTCGTTGCACCTCGCCGTCGGCCGGAGTCACCTAGTGCAG”, with 26800 fluorescence intensity (a.u.); and “GTCTTTCAAAATTGATCGTCATCTAAACGGGGTCTATTTACGGAGTCACCTAGTGCAG”, with 5150 fluorescence intensity (a.u.); and “GTGATGACTTCGTCAATCTCTAGGATTTGCCGACCCAGTCCGGAGTCACCTAGTGCAG”, with 7300 fluorescence intensity (a.u.).
On to “CTGATTTAAATTGAAAGCAACCGTCTTTTGATTTGTGTAGCGGAGTCACCTAGTGCAG”, for which the binding signal was 57100 fluorescence intensity (a.u.).
On to “GGGCCAATTGGGCCCTATTGATTGGGCCGTGCCCAACCGTCGGAGTCACCTAGTGCAG”, for which the binding signal was 20700 fluorescence intensity (a.u.).
With “TAAGTCAATGACTTAAATTTGGGTGGGCAAGTTCTACCACCGGAGTCACCTAGTGCAG”, the binding signal is 3960 fluorescence intensity (a.u.).
As to “AGTAATTAATAACCTATTGGTAGGTAAGATTACGTCTAAACGGAGTCACCTAGTGCAG”, the binding signal was 10900 fluorescence intensity (a.u.).
As for “TTGTAATCTGAAACGGATTGAGTAATACCTAATCAGCCTACGGAGTCACCTAGTGCAG”, the figure is 3230 fluorescence intensity (a.u.); as for “ATAATTGTTCAATGTTACTGCGAAAACTCTTGCAGTTGCACGGAGTCACCTAGTGCAG”, 6900 fluorescence intensity (a.u.).
Then “ATATGCTAAACAAATTAGAATTACAATTTATATTGGACGACGGAGTCACCTAGTGCAG”, with 6090 fluorescence intensity (a.u.).
Turning to “TTGGTCAAATTGGAGTGGATTGGGTGCGTCCGTGTCCAAACGGAGTCACCTAGTGCAG”, the binding signal was 11600 fluorescence intensity (a.u.).
As for “ATATATATATATATATATATATGTGTGTATATATATATATCGGAGTCACCTAGTGCAG”, the figure is 6150 fluorescence intensity (a.u.); as for “TACATACAAGTTACAGTGTAATTACACTACGATTGTACTACGGAGTCACCTAGTGCAG”, 3630 fluorescence intensity (a.u.).
As for “TCACACTATCATTGTAACAAATTGAAATATGTCACTAATGCGGAGTCACCTAGTGCAG”, the figure is 10200 fluorescence intensity (a.u.); as for “CAAATCATGACGCAATCAGGCTTAAAAGATTTGTCTCGCACGGAGTCACCTAGTGCAG”, 17800 fluorescence intensity (a.u.).
For “CTAGATCATCAAAACAAATTATGGCTGTGTTTAGTTCAGCCGGAGTCACCTAGTGCAG”, the binding signal is 8260 fluorescence intensity (a.u.).
As for “GAATAATTAAACAAGTTGGTTCACCTGTCCCAGCTGCTAACGGAGTCACCTAGTGCAG”, the figure is 20900 fluorescence intensity (a.u.); as for “ATCGGTGAATTAATTTACAGCGCTAGAAATCTTGATGGATCGGAGTCACCTAGTGCAG”, 11500 fluorescence intensity (a.u.); as for “CGATCTGATGGACGGTCCTGATTGATCCCGATCTATACAACGGAGTCACCTAGTGCAG”, 26200 fluorescence intensity (a.u.).
As for “ACCTCGTCACCTCGTCTTAATTACTTTGGAGTGGCATGCACGGAGTCACCTAGTGCAG”, the figure is 8950 fluorescence intensity (a.u.).
As for “ATTTCAGATTGGGTTATTTGAGAGCTAAATTTCTAATGTACGGAGTCACCTAGTGCAG”, the figure is 4680 fluorescence intensity (a.u.); as for “TGTAACTCTCGTATGTAATTGAGTAAAACATGTTGGTGCTCGGAGTCACCTAGTGCAG”, 4540 fluorescence intensity (a.u.).
“CACTAACTAATAATTAATCAAGCCGGTAGGCGCAGCGTGGCGGAGTCACCTAGTGCAG”: the binding signal was 32900 fluorescence intensity (a.u.).
Regarding “TTTTATTGTCCAATTGGATTTTGTATCTACGTTTGAATTTCGGAGTCACCTAGTGCAG”, the binding signal is 3470 fluorescence intensity (a.u.).
Regarding “GCAGGGTAATTACTTGTCAGACGAAGACTGTAATTTTAACCGGAGTCACCTAGTGCAG”, the binding signal was 12000 fluorescence intensity (a.u.).
As to “AGTTTTAAACACGGTTTAATTATAAAATAAATTTTGTGAGCGGAGTCACCTAGTGCAG”, the binding signal is 8730 fluorescence intensity (a.u.).
“CATGTGGTTGAAACTTGATTGAAATTTCCTCAGTACATTGCGGAGTCACCTAGTGCAG”: the binding signal is 6550 fluorescence intensity (a.u.).
Take “AATCAATTAGATAGAGGCCCTTAGCTTCCTCCTTGATTATCGGAGTCACCTAGTGCAG”: the binding signal is 18400 fluorescence intensity (a.u.).
With “TACAATAAATTATGACAGATCTACCCCAGTCGGCCCGTAACGGAGTCACCTAGTGCAG”, the binding signal was 13800 fluorescence intensity (a.u.).
“TGCCTAAATTTATACTGATGGGGTGTATATATGGTGAAAACGGAGTCACCTAGTGCAG”: the binding signal is 17500 fluorescence intensity (a.u.).
Turning to “TATGATAATTTGATCAAAGTACATGTAGTTTTGTGAAATTCGGAGTCACCTAGTGCAG”, the binding signal was 7780 fluorescence intensity (a.u.).
Turning to “TCCCTCTATCAATCAAGAAACAAGCAAGATTATTCTAGCCCGGAGTCACCTAGTGCAG”, the binding signal is 16700 fluorescence intensity (a.u.).
